Source: the supplement of paper PMC8277577
Recombinant human monoclonal antibodies (heavy:light variable regions). ELISA EC50 on the named antigen, from 10 µg/ml down; lower = stronger. No active / inactive call.

B1: C877 (protein)
chain 1: EVQLVESGGGLIPPGGSLRLSCAASGIIVSRNYMSWVRQTPGKGLEWVSVMYAGGTKEYADSVKGRFIISRDDSNNTLYLQMNSLRAEDTAVYYCARDLIVLGVDVWGQGTTVTVSS
chain 2: DIQLTQSPSFLSASVGDRVTITCRASQGISNYLAWYQQKPGKAPKLLIYAASTLQSGVPSRFSGSGSGTEFTLTISSLQPEDFATYYCQLLNSYPMCSFGQGTKLEIK
B2: C862 (protein)
chain 1: QVQLQESGPGLVKPSQTLSLTCTVSGASISSSEHYWSWIRQPPGKGLEWIGYISYSGGTYQNPSLQSRMTLSMDASKNQFSLKLSSVTAADTAVYFCARLNTMIVMINGVFDVWGQGTMVTVSS
chain 2: DIQMTQSPSSLSAFVGDRVTITCQASQDINKYVNWYQQKPGKAPKLLIYDASNLQTGVPSRFSGSGSGTHFTFTISSLQPEDFATYYCQEYDNLFSISFGQGTRLEIK
B3: C857 (protein)
chain 1: QVQLQESGPGLVKPSQTLSLTCTVSGGSISSGGYYWSWIRQHPGKGLEWIGYIYYSGSTYYNPSLESRVTISVDTSKNQFSLKLSSVTAADTAVYYCASGELSAFGELFPHDYWGQGTLVTVSS
chain 2: EIVLTQSPATLSLSPGERATLSCRASQSVSTYLAWYQQKPGQAPRLLIYDASNRATGIPARFSGSGSGTDFTLTISSLEPEDFAVYYCQQRSNWLFTFGPGTKVDIK
B4: C864 (protein)
chain 1: QVQLVQSGPEVKKPGTSVKVSCKAFQLSFSVSAVQWVRQARGQRLEWIGWIVVGSGNTNYAQKFQERVTITRDMSTSTVYMEVRSLRSEDTAVYYCAAPQCNRTTCYDAFDMWGQGTMVTVSS
chain 2: EIVLTQSPGTLSLSPGERATLSCRASQSVNSNYLAWYQQKPGQAPRLLIFGPSNRATGIPDRFSGSGSGTDFTLTISRLESEDFAVYYCQQYGSSPWTFGQGTKVEIK
B5: C859 (protein)
chain 1: QVQLVQSGAELKKPGASVRVSCKASGYTFTDYYIHWVRQAPGQGFEWMGWINPDSGGTNYPQNFQGRVTMTRGTSISTAYVELTRLRFDDTAVYYCARTSSPHSSSTGDLDYWGQGTLVTVS
chain 2: SYELTQSPSVSVAPGKTARITCGGRDIGSKSVHWYQQRPGQAPVLVISYDNDRPSGIPERFSGSNSGNTATLTISRVEAGDEADYYCQVWDGTGDHPGWVFGGGTRLTVL
B6: C869 (protein)
chain 1: QVQLVESGGGVVQPGTSLRLSCAASGFTFSSFGMNWVRQAPGKGLEWVAVIFFDGSKTYYADSVKGRFTISRDNSKNTLYLQMNSLRTEDTAVYYCAKGQLRLGEFDDYWGQGTLVTVSS
chain 2: DIQMTQSPSSLSASVGDRVTITCRASQDIRDDLNWYQHKPGKAPKLLIYTASSLQSGVPSRFSGSGSGTDFTLTISRLQPEDFASYYCLQDHNYPLTFGQGTKLEIK
B7: C876 (protein)
chain 1: EVQLVESGGGLIQPGGSLRLSCAASEFVISRNYMSWVRQAPKKGLEWVSVLYSGGSTFYADSVKGRFTISRDDSRNMLYLQMNSLRAEDTAVYYCVRDFGEFYFDYWGQGVLVTVSS
chain 2: EIVMTQSPTTLSVSPGERATLSCRASQSLSSNLAWYQQKPGQAPRLLIFGVSTRATGIPARFSGSGSGTEFTLTISSLQSEDFAVYYCQQYYSGPRTFGQGTKVEIK
B8: C868 (protein)
chain 1: QVQLQESGPRLVKPSETLSLTCIVSGGSVSSNNFYWSWIRQPPGKRLEWIGYFYNSGSSKYNPSLKSRVTISGDTSKNQFSLKLSSVTAADTAVYYCARETFFYDRTGHYKSDGFDVWGQGTMVTVSS
chain 2: DIQMTQSPSTLSASVGDRVTISCRASQNISSWLAWYQQEAGKAPKLLIYKASSLESGVPSRFSGSGSGTEFTLTISSLQPGDFATYYCQQYNIYSYTFGQGTKLEIK
B9: C871 (protein)
chain 1: EVQLVESGGGLIQTGGSLKLSCAASGFIVTNNYMSWVRQAPGKGLEWVSVIYSGGTTYYADSVKGRFTISRDISKNTLYLQMNSLKAEDTAVYYCAREGDVEGISDSWSGYSRDRYYFDHWGQGTLVTVSS
chain 2: QSALTQPASVSGSPGQSITISCTGTSSDVGGYNYVSWYQQHPGKAPKLMIYDVSNRPPTISNRFSGSKSGNTASLIISGLQPEDEADYYCSSFTSNNTRVFGTGTKVTVL
B10: C856 (protein)
chain 1: QVQLVESGGGVVQPGRSLRLSCAASGFTFSSYGMHWVRQAPGKGLEWVAVISYDGSNKYYADSVKGRFTISRDNSKNTLYLQMSSLRAEDTAVYYCAKQIGEYCSGGSCYQGSLDYWGQGTLVTVSS
chain 2: not shown
B11: C875 (protein)
chain 1: QVQLVQSGAEVKQPGASVKISCKASGYIFTTYFMHWVRQAPGQGLEWLGIIDPTISGASLAQKFQGRVTMTSDTSTSTVYMEMRSLRSDDTALYFCARASTSTSSWSEALSLGSWGQGTLVTVSS
chain 2: QSVLTQPPSVSGAPGQGVSISCTGSSSNVGAGYGVHWYQQLPGTTPKLLIYDNNSRPAGVPDRFSGSKSGTSASLAIAGLQPEDEADYYCQSWDNGLSGSGVVFGGGTKVTVL
B12: C872 (protein)
chain 1: EVQLVESGGGLIQPGGSLRLSCAASGFIVSNNYISWVRQAPGKGLEWVSVIYSGGTTYYADSVKGRFSISRDTSKNTVYLQINNLRAEDTAVYYCAREGDVDGNYGFWSGYSRDRYYFDYWGQGTLVTVSS
chain 2: QSALTQPASVSGSPGQSITISCTGTSSDVGAYNYVAWYQQHPGKAPKLMVYDVSKRPSGVSNRFSGSKSGNTASLTISGLQTEDEGDYYCCSYTTNTTRVFGTGTMLTVL
B13: C950 (protein)
chain 1: QVQLVESGGGLVKPGGSLRLSCAASGFTFSDYCVTWIRQAPGKGLEWLSYSNTNDSSRSYADSVKGRFTISRDNAKNSLYLQMDSLRAEDTAVYYCARRGDGNVPLFHYYYMDVWGKGTTVTVSS
chain 2: QSVLTQPPSASGTAGQRVTISCSGGSSNIGSNTVHWYQQLPGTAPKLLIYSNYKRPSGVPDRFSGSKSGASASLAISGLQSEDEAEYYCAAWDDSANGPIFGGGTKLTVL
B14: C865 (protein)
chain 1: EVQLLESGGGLVQPGGSLRLSCVASRFIFSRYALSWVRQAPGKGLEWVSGISGSGHSTHYADSVTGRFTISRDNSKNTVYLQMSSLRAEDTAVYYCAKGPRSNYDYFESWGQGTLVTVSS
chain 2: DIQLTQSPSSLSASVGDRVTITCRASQGISSALAWYQQRPGKAPRLLIYDASSLDSGVPSRFSGSGSGTDFTLTISSLQSEDFATYYCQQFINNPLTFGGGTKVEIK
B15: C867 (protein)
chain 1: QVQLQESGPGLVKSSETLSLTCTVSSGSVRSGGYYWSWIRHHPGKGLEWIGYIFYTGITYYNPSLKSRVIVSVDPSKNQFSLNLTSVTAADTAVYYCASTPYTNGGAFHIWGQGTMVTVSS
chain 2: QSALTQPPSASGSPGQSVTISCTGTSSDVGGHNYVSWYQQFPGKAPKLIIYDVNKRPSGVPDRFSGSKSANTASLTVSGLQAEDEADYHCSSYAGSNNWVFGGGTKLTVL
B16: C870 (protein)
chain 1: EVQLVESGGGLVQPGKSLRLSCAGSGFAFSSYHMNWVRQAPGKGLEWVAYISSGSSTIHYADSVKGRFTISRDNAKNSFYLQMNSLRAEDTALYYCARAIVGTKGYMDVWGKGTTVTVSS
chain 2: QSALTQPASVSGSPGQSVTISCTGTRSDVGSYDLVSWYQLHADKAPKLIIYEVTSRPSGISTRFSGSKSGNTASLTISGLQAEDEADYYCCSYAGTTWLFGGGTRLTVL
B17: C866 (protein)
chain 1: EVQLVESGGGLVQPGRSLRLSCVASGFEFEDYGMHWVRQVPGKGLEWVSGISWNSASVGYADSVRGRFTISRDNAKNSLYLQMNSLRAEDTALYYCGKQINEWSHFLDYWGQGTLVTVSS
chain 2: DIQLTQSPSSVSASVGDRVTITCRASQGISNWLAWYQKKPGKAPKLLIYATSSLQSGVPSRFSGSGSETDFTLTIRSLQPEDFATYYCQQANSYPLTFGQGTKLEIK
B18: C863 (protein)
chain 1: EVQLLESGGGLVRPGGSLRLSCAASGFIFGSYAMTWVRQAPGKGLEWVSTISGGGTSTDYADSVKGHFTISRDNGKNTLYLQMNSLRAEDTAVYYCVKESDYYMASVNGMDVWGHGTTVTVSS
chain 2: EIVLTQSPGTLSLSPGERATLSCRARQGVSSTYLAWYQQKPGQAPRLLIYGASSRATGIPDRFSGSGSGADFTLTISRLEPEDFAVYYCQQYGTSPYTFGQGTKLEIK
B19: C874 (protein)
chain 1: QVQLVQSGPEVKKPGASVKVSCKASGYIFTDYSIHWVRQAPGQGLEWMGWINPNSGGGNSAQIFKGRATMARDTSITTVYMDLSGLRSDDTAVYYCARGPLFHKVVYESSSGFHDGLDFWGQGTMVTVSS
chain 2: NFMLTQPHSVSESPGKTVTISCTGSSGSIASNYVQWYQQRPGSAPTTVIYEDNQRPSGVPDRFSGSIDSSSNSASLTISGLKTEDEADYYCQSYDSSNYWVFGGGTKLTVL

What follows are binders tested against SARS-CoV-2 Wuhan-Hu-1 spike receptor-binding domain (assay: ELISA binding EC50; higher = weaker binding; ELISA of recombinant human antibody on coated antigen, from 10 µg/ml in fourfold dilutions; four-parameter fit.).

| Binder | ELISA binding EC50 |
| --- | --- |
| B1 | 2.53 ng/mL |
| B2 | 2.14 ng/mL |
| B3 | 2.01 ng/mL |
| B4 | 1.89 ng/mL |
| B5 | 2.75 ng/mL |
| B6 | 3.14 ng/mL |
| B7 | 3.53 ng/mL |
| B8 | 3.39 ng/mL |
| B9 | 1.52 ng/mL |
| B10 | 2.65 ng/mL |
| B11 | 3.5 ng/mL |
| B12 | 2.19 ng/mL |
| B13 | 2.15 ng/mL |
| B14 | 2.14 ng/mL |
| B15 | 2.71 ng/mL |
| B16 | 2.17 ng/mL |
| B17 | 2 ng/mL |
| B18 | 3.31 ng/mL |
| B19 | 5.2 ng/mL |
